The test system of data set [1] is rat myocardial cells (H9C2). In words: In vitro cytotoxicity assay, CCK-8. Conditions: FIG. 13.
In the next data set the target is HsClpP (Homo sapiens, UniProt Q16740). Kind of data set: Differential Scanning Fluorimetry (DSF). The data set is classed as binding. Conditions: 100 μM compound, 10 μM HsClpP; DMSO blank; FIG. 4. The method, then:
Detection was carried out using an RT-PCR instrument for fluorescence detection. The melting curve was selected, with the temperature setting to rise from 25° C. to 99° C. within 40 minutes. Fluorescence detection was performed using the SSYPRO Orange channel, and the data were recorded.
For orientation: DSF heats the sample and reads unfolding from a dye or from intrinsic fluorescence.

For data set [2], the system named is HCT116 cells. Kind of data set: Colony formation assay, crystal violet. Type of data set: cell-based, human. The settings on record: 12.5nM, 25nM, and 50nM; FIG. 11. From the text:
Example 11: In vitro Antitumor Cell Colony Formation Assay of preferred Compound. In addition to being closely associated with the proliferation of tumor cells, the regulation of HsClpP also induces cell cycle arrest and the formation of clones. In this experiment, HCT116 cells were used for a cell monoclonal experiment, and stained with crystal violet.

Data set [3] relates to HCT116 cells. In words: Cell cycle arrest, flow cytometry. The settings on record: control group 26%, FIG. 9. The data set is classed as cell-based, human. The source says:
As the concentration increased, the number of GO/G1 phase cells increased linearly. […] […]. […] […].
(In general: A flow cytometer gives signals particle by particle.)

In data set [4] the test system is HCT116 cells. In words: Apoptosis, Annexin V/PI staining. Conditions: 12.5 nM; FIG. 10.
Data set [5] has as its system HCT116 cells. Kind of data set: ROS generation, DCFH-DA staining. The settings on record: 48 hours; different concentrations; FIG. 8. Type of data set: cell-based, human. From the text: In cancer cells, mitochondrial reactive oxygen species (ROS) are closely associated with tumorigenesis. Disruption of HsClpP function increases the generation of mitochondrial ROS, thereby inducing apoptosis in tumor cells. […] Changes in intracellular ROS content were observed under a fluorescence microscope.

In data set [6] the test system is HCT116 cells. Kind of data set: Mitochondrial membrane potential, TMRM probe. Type of data set: cell-based, human. Conditions: compared to ONC201; FIG. 6. The method, then: In this study, the membrane potential changes are tested using the tetramethylrhodamine methyl ester (TMRM) probe.
A further data set deals with MV-4-11. Kind of data set: CCK-8 in vitro anti-tumor proliferation assay. Conditions: Homo sapiens, MV4-11; Table 3; 72 hours. Type of data set: cell-based. The method, then:
(§1) Example 3: In vitro anti-tumor proliferation assay of the compounds. The purpose of this experiment was to use CCK-8 to detect the in vitro inhibitory activity of the compounds of the present invention against the proliferation of tumor cells. The main reagents, such as RPMI-1640, DMEM high-glucose culture medium, fetal bovine serum, trypsin, etc., were purchased from Gibco BRL. CCK8 and DMSO were products of Sigma. For in vitro experiment, the test compounds were prepared as 10 mM stock solutions in DMSO and stored at −20° C. in the refrigerator in the dark for later use, then diluted to desired concentration with complete culture medium before use. The human lung cancer cells, colon cancer cells, breast cancer cells, glioblastoma cells, human myelomonocytic leukemia cells, and human Burkitt's lymphoma cells used in this experiment were all purchased from the American ATCC company and preserved in laboratory of the inventors. All the above cell lines were cultured in RPMI-1640 complete medium or DMEM complete medium containing 10% fetal bovine serum, 100 U/mL penicillin, and 100 μg/mL streptomycin under 5% carbon dioxide, 37° C. conditions. […] The previous culture medium was discarded, fresh culture medium was added to resuspend the cells, and then the cells were counted. According to the growth rate of different cells, the cell seeding concentration was determined, generally being 3000-5000 cells/well. After determining the seeding concentration, the cell suspension was diluted to desired concentrations with fresh culture medium, and then added to a 96-well plate with 100 μL per well, and 200 μL of PBS was added to the edge wells to prevent evaporation of the culture medium. On the second day, drug treatment was performed. First, the compounds were diluted into a series of gradients with culture medium, and then the drug solution was added to the 96-well plate, with 3 parallel wells for each gradient. Each plate set a blank control group, and ONC201 was used as the positive control group.

A further data set concerns A172. Kind of data set: CCK-8 in vitro anti-tumor proliferation assay. The data set is classed as cell-based. The settings on record: Homo sapiens, A 172; Table 3; 72 hours. The method, then: as §1
Another data set has as its system A549. In words: CCK-8 in vitro anti-tumor proliferation assay. Type of data set: cell-based. The settings on record: Homo sapiens, Table 3, 72 hours. The procedure: as §1
Another data set has as its system Raji. In words: CCK-8 in vitro anti-tumor proliferation assay. Type of data set: cell-based. The settings on record: Homo sapiens, Table 3, 72 hours. The procedure:
as §1

Data set [7] relates to human normal embryonic kidney cells (HEK293). Kind of data set: In vitro cytotoxicity assay, CCK-8. The settings on record: up to 50μM; FIG. 13.
The next data set addresses T1, HsClpP in HCT116 cells (Homo sapiens, UniProt Q16740).
T1 construct: HCT116 cells in logarithmic growth phase are incubated with 100 μM of compound for 30 minutes; endogenous in cells; host or cells: HCT116
Kind of data set: Cellular Thermal Shift Assay (CETSA). Type of data set: cell-based. The settings on record: 100 μM, 30 minutes, 46-74° C.; FIG. 5.

T1 sequence (Q16740 57-277): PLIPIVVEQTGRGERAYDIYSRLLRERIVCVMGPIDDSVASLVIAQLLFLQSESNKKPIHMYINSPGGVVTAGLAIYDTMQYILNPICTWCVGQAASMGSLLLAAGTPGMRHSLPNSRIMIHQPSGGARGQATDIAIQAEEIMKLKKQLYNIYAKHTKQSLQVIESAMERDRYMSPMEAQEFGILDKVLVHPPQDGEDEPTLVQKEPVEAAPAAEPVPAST

`O=c1nc2n(c3c1CN(Cc1ccccc1)CC3)CCN2Cc1ccc(F)c(Br)c1` [Compound 21, 7-benzyl-3-(3-bromo-4-fluorobenzyl)-2,3,6,7,8,9-hexahydroimidazo[1,2-a]pyrido[3,4-e]pyrimidin-5 (1H)-one]: the “inhibitory activity on H9C2 cells” value in [1] is “no significant inhibitory activity”. Besides, the “change in Tm value of the HsClpP protein” value on HsClpP is “greater than that of ONC201”. In addition, the “formation of HCT116 mono-clones” value in the data set with HCT116 cells [2] is listed as “significantly inhibited”. In addition, the “percentage of GO/G1 phase cells” value in the data set on HCT116 cells [3] (12.5 nM) was determined as 40%. For the same molecule, the “number of GO/G1 phase cells” value in the data set with HCT116 cells [3] (50 nM) worked out at 55%. In the data set with HCT116 cells [4], this molecule had an apoptotic rate of 4.09%. Moreover, the “intracellular ROS content” value with HCT116 cells [5] is “can induce the generation of ROS”. The “changes in mitochondrial membrane potential” value with HCT116 cells [6] was “more pronounced and concentration-dependent”. The IC50 – broadly, the concentration needed to halve the response being measured – with MV-4-11 came out at 0.006 µM; in the data set on A172 it was 0.03 µM; in the data set on A549 it was 0.05 µM; in the data set with Raji, 0.025 µM. In data set [7], the “cytotoxicity on HEK293 cells” value is listed as “no significant cytotoxicity”. Further, the “HsClpP thermal stability in cells (western blot)” value at HsClpP in HCT116 cells was “can effectively stabilize the HsClpP protein at different temperatures”.

The record behind these values is patent US20240287071A1, “CLASS OF IMIDAZOLIDINOPYRIMIDONE COMPOUNDS AND USE THEREOF IN TREATMENT OF HSCLPP-MEDIATED DISEASES” (SICHUAN UNIVERSITY, priority 2021, published 2024).
